Measured values reported in patent US12678425B2, “Methods for treating against viruses” (Howard University, priority 2019, dated 2026).

Tested on: HSV-1 F strain expressing luciferase (R8411)
Test: Bioluminescence luciferase assay of HSV1-Luc proliferation in HEp-2 cells
Settings: for inhibition of HSV-1 proliferation (luciferase signal): 1 μM
Protocol: The virus used in this diagram is an HSV-1 F strain expressing luciferase (R8411 mutant) under the control of the ICP27 promoter, and was a gift from Prof. Bernard Roizman (University of Chicago). HEp-2 cells were grown to 80-90% confluency in Dulbecco's Modified Eagle's medium (DMEM) supplemented with 10% fetal calf serum (PCS) and 1% penicillin-streptomycin (PS) and fungicide. The HSV-1 virus and the indicated concentration of compound(s) were added and incubated for 24 h (in panels A and B) and for 48 h (in panel C). The luciferase signals were imaged and quantified in a Perkin Elmer IVIS Spectrum Imaging system. […] High luminescence indicates high viral proliferation. […] Panel B is a bar graph of a luciferase signal as shown in panel A for HSV-1 with no virus, virus treated with DMSO, and virus treated with different concentrations of a representative compound within general formula (1). […] The compound(s) inhibit Y248 phosphorylation of RACK1 protein.
Hep-2 cells were incubated with the indicated compounds in the presence of HSV1-Luc virus at a concentration of 4×10^6 pfu/ml media (Panel A). Panel B depicts quantification of the luciferase signal from the samples in panel A. Signals from three replicates from two separate experiments were combined to generate the average and the standard error bar.
As an IRES-containing virus, an HSV-1 F strain expressing luciferase (R8411 mutant) under the control of the ICP27 promoter can be used. HEp-2 cells are grown to 80-90% confluency in Dulbecco's Modified Eagle's medium (DMEM) supplemented with 10% fetal calf serum (FCS) and 1% penicillin-streptomycin (PS) and fungicide. The HSV-1 virus and a concentration of an inhibitor compound(s) of a formulae herein are added and are incubated for 24 h and for 48 h (FIG. 11). The luciferase signals are imaged and are quantified in an imaging system, such as a Perkin Elmer IVIS Spectrum Imaging system. Inhibition against proliferation will be seen in a reduction in the luciferase signal.
(§1) To 80-90% confluent HEp-2 cells, HSV1-Luc (R8411) is added at a concentration of 2×10^6 pfu/ml along with indicated concentration of inhibitor compounds. After the described incubation period, luciferase activity is evaluated from bioluminescence images acquired by a Perkin Elmer IVIS Spectrum Imaging system immediately after adding luciferase substrate (D-luciferin, Gold Bio Technology) at a concentration of 400 μg/mL in medium. Bioluminescence intensity in different wells is quantified in units of photons per second per centimeter squared per steradian (p/s/cm^2/sr) by drawing a polygonal region of interest over the signals in images using Living Image 3.0 software (Caliper Life Sciences).
as §1, with “was” for “is”

SMILES | inhibition of HSV1-Luc proliferation (10 μM) | inhibition of HSV-1 proliferation (luciferase signal) | efficacy compared with acyclovir (HSV1-Luc, Hep-2 cells) | combinatorial effect on HSV1-Luc proliferation (all concentrations of SD29-14 combined with 10 μM of acyclovir) | HSV-1 proliferation (luciferase signals), dose dependence (co-treatment with virus) | concentration from which efficacy against HSV-1 proliferation starts (in vitro, luciferase signal) [µM] | improvement of starting effective concentration over SD-29 (in vitro, luciferase signal) [times]
Nc1nc2c(ncn2COCCO)c(=O)[nH]1 [acyclovir, reference compound] | showed inhibition |  |  |  |  |  | 
Nn1c(S)nnc1-c1ccc(F)cc1 [SD-29] |  | much less efficacy |  |  |  |  | 
Nn1c(S)nnc1-c1cc(Cl)cc(Cl)c1 [SD-29-14] |  | significantly inhibited | efficacy at slightly higher level than that of acyclovir | supralinear effect | strong inhibition of HSV-1 proliferation in a dose dependent manner | 1 | 100
